Measured values: the supplement of paper PMC4604168 (melanoma cell lines)
Some of the results follow. Most values come without repeats; read them as rough.

Legend:
Assay in all cases: cell count relative to DMSO control; melanoma cells; higher = more viable cells
Conditions in all cases: library dose: standard library concentration; 72 h
G361 = system: G361
IPC-298 = system: IPC-298
IST-MEL1 = system: IST-MEL1
LOXIMVI = system: LOXIMVI
MEL-HO = system: MEL-HO
MeWo = system: MeWo
RPMI7951 = system: RPMI7951
RVH-421 = system: RVH-421
LB2518-MEL = system: LB2518-MEL
MZ2-MEL = system: MZ2-MEL
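Further: cells treated in 1,536-well plates, then fixed and DAPI-stained, with nuclei counted from automated high-throughput microscope images.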

| SMILES | cell count (G361) [%] | cell count (IPC-298) [%] | cell count (IST-MEL1) [%] | cell count (LOXIMVI) [%] | cell count (MEL-HO) [%] | cell count (MeWo) [%] | cell count (RPMI7951) [%] | cell count (RVH-421) [%] | cell count (LB2518-MEL) [%] | cell count (MZ2-MEL) [%] |
| --- | --- | --- | --- | --- | --- | --- | --- | --- | --- | --- |
| Cc1ccc(Nc2nccc(N(C)c3ccc4c(C)n(C)nc4c3)n2)cc1S(N)(=O)=O [Pazopanib] + O=C(O)c1ccc(-c2c[nH]c3ncc(-c4ccccc4)cc23)cc1C1CCCC1 [GSK650394] (first compound 2 µM, partner dose 0.8 µM) | 62 | 65.5 | 83.5 | 80 | 77.7 | 79.7 | 60 | 90.9 | – | – |
| Cc1ccc(Nc2nccc(N(C)c3ccc4c(C)n(C)nc4c3)n2)cc1S(N)(=O)=O [Pazopanib] + NC(=O)c1ccc(N(C(N)=O)c2c(F)cccc2F)nc1-c1ccc(F)cc1F [VX702] (first compound 2 µM, partner dose 2 µM) | 77.2 | 77.4 | 104 | 104 | 93.2 | 90.6 | 80.1 | 93.2 | 68.3 | 68.3 |
| O=C(/C=C/c1cccnc1)NCCCCC1CCN(C(=O)c2ccccc2)CC1 + O=C(O)[C@@H]1[O][Sb](=[O])([O][Sb]2(=[O])[O][C@H]([C@H](O)CO)[C@H](O)[C@H](C(=O)O)[O]2)[O][C@H]([C@H](O)CO)[C@@H]1O [stibogluconate] (first compound 0.05 µM, partner dose 10 µM) | 4.57 | 31.1 | 66.3 | 64.3 | 43.2 | 106 | 125 | 34.4 | 50.8 | 48.6 |
| Cc1ccc(Nc2nccc(N(C)c3ccc4c(C)n(C)nc4c3)n2)cc1S(N)(=O)=O [Pazopanib] + CN1CCN(c2ccc3nc(-c4c(N)c5c(F)cccc5[nH]c4=O)[nH]c3c2)CC1 [Dovitinib] (first compound 2 µM, partner dose 0.5 µM) | 47.5 | 63.7 | 79 | 103 | 60 | 33.1 | 82.3 | 26.2 | 44.5 | 49.1 |
| Cc1ccc(Nc2nccc(N(C)c3ccc4c(C)n(C)nc4c3)n2)cc1S(N)(=O)=O [Pazopanib] + OCc1c[nH]c2ccccc12 [Indole-3-carbinol] (first compound 2 µM, partner dose 4 µM) | 102 | 69.5 | 92.6 | 62.4 | 86.2 | 81.2 | 68.8 | 27.2 | 83.6 | 68.9 |
| CC1(C)CCC(c2ccc(Cl)cc2)=C(CN2CCN(c3ccc(C(=O)NS(=O)(=O)c4ccc(N[C@H](CCN5CCOCC5)CSc5ccccc5)c(S(=O)(=O)C(F)(F)F)c4)cc3)CC2)C1 + Nc1ncn([C@H]2C[C@H](O)[C@@H](CO)O2)c(=O)n1 [decitabine] (first compound 2 µM, partner dose 0.5 µM) | 71.3 | 64.6 | 61.3 | 26.7 | 45.8 | 58.6 | 28.4 | 56.8 | 69.7 | 53.5 |
| Cc1ccc(Nc2nccc(N(C)c3ccc4c(C)n(C)nc4c3)n2)cc1S(N)(=O)=O [Pazopanib] + C=CCNC1=C2C[C@@H](C)C[C@H](OC)[C@H](O)[C@@H](C)/C=C(\C)[C@H](OC(N)=O)[C@@H](OC)/C=C\C=C(/C)C(=O)NC(=CC1=O)C2=O [Tanespimycin] (first compound 2 µM, partner dose 0.01 µM) | 54.6 | 71 | 69.8 | 106 | 88.5 | 72 | 24.5 | 66.9 | 82.7 | 84.1 |
| Cc1ccc(Nc2nccc(N(C)c3ccc4c(C)n(C)nc4c3)n2)cc1S(N)(=O)=O [Pazopanib] + C=CCn1c(=O)c2cnc(Nc3ccc(N4CCN(C)CC4)cc3)nc2n1-c1cccc(C(C)(C)O)n1 [MK1775] (first compound 2 µM, partner dose 0.1 µM) | 72.8 | 74.2 | 99.4 | 71.7 | 85.6 | 85 | 65.6 | 113 | – | – |
| O=C(/C=C/c1cccnc1)NCCCCC1CCN(C(=O)c2ccccc2)CC1 + C#Cc1cccc(Nc2ncnc3cc(OCCOC)c(OCCOC)cc23)c1 [erlotinib] (first compound 0.05 µM, partner dose 4 µM) | 4.91 | 36.8 | 59.6 | 62.1 | 45 | 66.1 | 57.2 | 37.8 | – | – |
| CC1(C)CCC(c2ccc(Cl)cc2)=C(CN2CCN(c3ccc(C(=O)NS(=O)(=O)c4ccc(N[C@H](CCN5CCOCC5)CSc5ccccc5)c(S(=O)(=O)C(F)(F)F)c4)cc3)CC2)C1 + Nc1nc(F)nc2c1ncn2[C@@H]1O[C@H](CO)[C@@H](O)[C@@H]1O [fludarabine] (first compound 2 µM, partner dose 1 µM) | 72.7 | 68.8 | 55.5 | 45.5 | 50.8 | 72.3 | 27 | 74 | – | – |
| CC1(C)CCC(c2ccc(Cl)cc2)=C(CN2CCN(c3ccc(C(=O)NS(=O)(=O)c4ccc(N[C@H](CCN5CCOCC5)CSc5ccccc5)c(S(=O)(=O)C(F)(F)F)c4)cc3)CC2)C1 + Cn1nnc2c(C(N)=O)ncn2c1=O [temozolomide] (first compound 2 µM, partner dose 10 µM) | 94.7 | 95.9 | 55.2 | 25 | 61.8 | 87.9 | 45.1 | 143 | – | – |
| O=C(/C=C/c1cccnc1)NCCCCC1CCN(C(=O)c2ccccc2)CC1 + OCc1c[nH]c2ccccc12 [Indole-3-carbinol] (first compound 0.05 µM, partner dose 4 µM) | 3.26 | 22 | 58.9 | 78.3 | 51.6 | 113 | 91 | 28.3 | 69.5 | 35.1 |
| Cc1ccc(Nc2nccc(N(C)c3ccc4c(C)n(C)nc4c3)n2)cc1S(N)(=O)=O [Pazopanib] + Oc1nc(-c2ccc(C(F)(F)F)cc2)nc2c1CSCC2 [XAV939] (first compound 2 µM, partner dose 10 µM) | 71 | 63.1 | 82.1 | 68.3 | 75 | 76.5 | 59.5 | 82.8 | 59.1 | 64 |
| CC1(C)CCC(c2ccc(Cl)cc2)=C(CN2CCN(c3ccc(C(=O)NS(=O)(=O)c4ccc(N[C@H](CCN5CCOCC5)CSc5ccccc5)c(S(=O)(=O)C(F)(F)F)c4)cc3)CC2)C1 + CN(c1ncccc1CNc1nc(Nc2ccc3c(c2)CC(=O)N3)ncc1C(F)(F)F)S(C)(=O)=O [PF562271] (first compound 2 µM, partner dose 0.4 µM) | 58 | 88.2 | 61.4 | 39.6 | 51.8 | 69.6 | 15.6 | 47.9 | 64.5 | 63.6 |
| Cc1ccc(Nc2nccc(N(C)c3ccc4c(C)n(C)nc4c3)n2)cc1S(N)(=O)=O [Pazopanib] + NCC(=O)Nc1ccc(-n2nc(C(F)(F)F)cc2-c2ccc3c(ccc4ccccc43)c2)cc1 [OSU03012] (first compound 2 µM, partner dose 5 µM) | 50.9 | 49.9 | 72.4 | 60.8 | 86.2 | 84.4 | 75.7 | 90.5 | 70.7 | 64.2 |
| CC1(C)CCC(c2ccc(Cl)cc2)=C(CN2CCN(c3ccc(C(=O)NS(=O)(=O)c4ccc(N[C@H](CCN5CCOCC5)CSc5ccccc5)c(S(=O)(=O)C(F)(F)F)c4)cc3)CC2)C1 + Cn1cnc2c(F)c(Nc3ccc(Br)cc3Cl)c(C(=O)NOCCO)cc21 [selumetinib] (first compound 2 µM, partner dose 0.075 µM) | 51 | 44.8 | 84.7 | 92.3 | 57.9 | 71.8 | 67.5 | 46.5 | – | – |
| CC1(C)CCC(c2ccc(Cl)cc2)=C(CN2CCN(c3ccc(C(=O)NS(=O)(=O)c4ccc(N[C@H](CCN5CCOCC5)CSc5ccccc5)c(S(=O)(=O)C(F)(F)F)c4)cc3)CC2)C1 + CCCCCCCCCCCC1=C(O)C(=O)C=C(O)C1=O [Embelin] (first compound 2 µM, partner dose 6 µM) | 62.9 | 84.7 | 55.7 | 111 | 41.4 | 67.1 | 23.8 | 40 | 98.5 | 82.1 |
| CC1(C)CCC(c2ccc(Cl)cc2)=C(CN2CCN(c3ccc(C(=O)NS(=O)(=O)c4ccc(N[C@H](CCN5CCOCC5)CSc5ccccc5)c(S(=O)(=O)C(F)(F)F)c4)cc3)CC2)C1 + C[C@@H]1CCN(C(=O)CC#N)C[C@@H]1N(C)c1ncnc2[nH]ccc12 [CP690550] (first compound 2 µM, partner dose 5 µM) | 77 | 108 | 71.3 | 37.2 | 70.1 | 105 | 43.7 | 79.1 | 103 | 116 |
